Results published in PubChem BioAssay AID686978 (National Center for Advancing Translational Sciences (NCATS), 2013).
“And” between values parts separate entries of the source, which are not always exact repeats. Identical values can stand only once. Among all 420,000 compounds or so, about 64,000 (15%) were called active. Inconclusive results, whose numbers are uncertain, are shown with a selection of clear calls. Calls follow the shape of the dose curve; as a rule, active = well fitted inhibition curve with a large enough effect; inconclusive = small, poorly fitted or top-dose-only effect; inactive = flat fitted curve, though single readings scatter. Potencies of inconclusive entries are left out as doubtful fits.

Assay: qHTS for Inhibitors of human tyrosyl-DNA phosphodiesterase 1 (TDP1): qHTS in cells in absence of CPT; also: nearly all actives have a fitted effect of over 55% in size
Conditions: DT40 Tdp1-/- hTDP1 cells, no CPT, ATP luminescence, 48 h; activity change, negative = growth inhibition: at 46.2 µM (top of the series) unless noted
Outline: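 Chicken DT40 Tdp1-/- cells complemented with human TDP1, screened without camptothecin (DMSO vehicle only), 400 cells/well. Compounds pin-transferred, cells incubated at 37 °C for at least 48 hr. Growth read as ATP-dependent luminescence (CellTiter-Glo, 30 min at RT).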
% is scaled to controls: 0 for no effect and ±100 for the full control effect; potency is read from the fitted curve at half-maximal effect; tags tell the direction and shape of the fitted curve.

| SMILES | Potency | activity change, negative = growth inhibition |
| --- | --- | --- |
| O=C(CSc1ncnc2nc[nH]c12)Nc1ccc(Br)cc1Cl | inconclusive [inhibitor, single point] | – |
| CCN1CCN(Cc2ccc(NC(=O)c3ccc(C)c(NC(=O)C(=O)c4c[nH]c5ccccc45)c3)cc2C(F)(F)F)CC1 | active: 3.66 µM and active: 10.3 µM and active: 2.59 µM | – |
| NCCCCCNC(=O)c1[nH]cnc1C(=O)N[C@@H](Cc1ccccc1)C(=O)OCc1ccccc1 | – | inactive: 8.69% |
| CCOC(=O)CCSc1nc(C)cc(C(F)(F)F)c1C#N | – | inactive: -15.7% |
| Cc1cccc(C(=O)N2CCCC(Nc3ccc(F)c(F)c3)C2)n1 (stereo unspecified) | – | inactive: -14.6% |
| CCc1ccc(NC(=O)CN(C)S(=O)(=O)c2ccc3c(c2)c(=O)n(C)c(=O)n3C)cc1 | inconclusive [inhibitor, single point] | – |
| Cc1cc(C)n(CCC(=O)N2c3ccccc3CC2C)n1 (stereo unspecified) | inconclusive [inhibitor, partial curve, poor fit] | – |
| CCOC(=O)C1CCN(c2ncnc3c2oc2ccc(Br)cc23)CC1 | inconclusive [inhibitor, single point] | – |
| CCCN(CCC)C(=O)C1CCC(CNS(=O)(=O)c2cccc3nsnc23)CC1 (stereo unspecified) | inconclusive [inhibitor, single point] | – |
| COCCCNC1=C(Cl)C(=O)c2ccccc2C1=O | inconclusive [inhibitor, partial curve, poor fit] | – |
| COC(=O)CNC(=O)Cn1ccc2ccccc2c1=O | – | inactive: -2.92% |
| COc1ccc(NC(=O)c2cc(-c3ccccc3Cl)on2)cc1OC | – | inactive: -2.64% |
| Cc1nc2ccc(NC(=O)c3ccc(Cl)c(NC(=O)c4cccs4)c3)cc2s1 | active: 20.6 µM | – |
| COc1ccccc1Nc1c2c(nc3ccc(N)cc13)CCCC2 | active: 20.6 µM | – |
| Cc1cc(N2Cc3ccccc3C2)ccc1C=O | inconclusive [inhibitor, single point] | – |
| O=C(NNC(=O)C1CCCN(S(=O)(=O)c2cccc(F)c2)C1)C1CC1 (stereo unspecified) | – | inactive: -14.3% |
| Cc1nn(Cc2cccc(C(=O)Nc3ccn(Cc4c(F)c(F)cc(F)c4F)n3)c2)c(C)c1[N+](=O)[O-] | inconclusive [inhibitor, single point] | – |
| CC(C)Sc1cc(N2CCOCC2)nc(-c2ccccc2)n1 | active: 16.4 µM | – |
| Cc1ccc(NC(=O)[C@@H]2CCCN2S(=O)(=O)c2ccc(Cl)cc2)cc1 | inconclusive [inhibitor, single point] | – |
| COc1cc(C(=O)Nc2nnc(C3=COCCO3)o2)cc(OC)c1OC | – | inactive: 3.89% |
| OC(COCc1cccs1)CN1CCN(c2ccccc2Cl)CC1 (stereo unspecified) | inconclusive [inhibitor, single point] | – |
| CC1CCCCC12NC(=O)N(CC(=O)Nc1ccccc1F)C2=O (stereo unspecified) | – | inactive: -0.865% |
| C/C(CC(=O)Nc1cc(C)cc(C)c1)=N\NC(=O)c1ccccn1 | – | inactive: -16.3% |
| c1ccc(N2CCN(c3nc4ccccc4n4nnnc34)CC2)cc1 | inconclusive [inhibitor, single point] | – |

| SMILES | Potency | activity change, negative = growth inhibition |
| --- | --- | --- |
| O=C(OCc1ccccc1)N1CCC2CC1c1cc(N3CCN(S(=O)(=O)c4cccc5ccccc45)CC3)ccc12 (stereo unspecified) | inconclusive [inhibitor, partial curve] | – |
| CCN(CC)c1ccc(CC(=O)NC(C)Cc2ccccc2)cc1 (stereo unspecified) | inconclusive [inhibitor, single point] | – |
| CCOC(=O)C1CCN(C(=O)c2cc(-c3ccncc3)nc3ccccc23)CC1 | active: 20.6 µM | – |
| Cc1ccc(NC(=O)c2nnn(Cc3ccccc3)c2N)cc1C | – | inactive: 7.35% |
| Cc1cc(C)cc(N=Cc2ccc([N+](=O)[O-])s2)c1 | active: 2.59 µM | – |
| Cc1cc(C)n(CC(O)COc2ccc(C(C)(C)C)cc2)n1 (stereo unspecified) | inconclusive [inhibitor, single point] | – |
| O=C(CSc1nnc(Cc2cccs2)n1-c1ccccc1)NCc1ccc2c(c1)OCO2 | inconclusive [inhibitor, single point] | – |
| CCOC(=O)C1=C(COC(=O)Cc2ccc(Cl)cc2)NC(=O)NC1C (stereo unspecified) | – | inactive: 1.24% |
| OCC[C@H]1C[C@@H](O)[C@H](O)[C@]2(OCCCc3ccccc32)O1 | – | inactive: -26.6% |
| Cc1ccc2c(c1)cc(CN(CCc1ccccc1)C(=O)N1CCOCC1)c1nnnn12 | inconclusive [inhibitor, single point] | – |
| O=C(CSc1nc2ccccc2[nH]1)NC1CCS(=O)(=O)C1 (stereo unspecified) | – | inactive: 0.439% |
| O=C(Nc1ccc(Br)cc1)c1ccc(F)c(S(=O)(=O)NC2CCCCCC2)c1 | active: 1.64 µM | – |
| CCOc1ccc(NC(=NCc2ccc3c(c2)OCO3)SC2CC(=O)N(c3ccc(C(=O)O)cc3)C2=O)cc1 (stereo unspecified) | inconclusive [inhibitor, single point] | – |
| C/C(=N\Nc1cccc([N+](=O)[O-])c1)c1ccccc1O | inconclusive [inhibitor, single point] | – |
| CCOC(=O)c1nnc(-c2ccc(C)cc2)nc1Sc1cccc(Cl)c1 | inconclusive [inhibitor, single point] | – |
| Cc1cc2oc(=O)cc(CN3CCN(S(=O)(=O)c4cccs4)CC3)c2cc1C | inconclusive [inhibitor, partial curve] | – |
| Cc1cc(=O)oc2cc(OCC(=O)Nc3ccc(N4CCC(C)CC4)cc3)ccc12 | inconclusive [inhibitor, partial curve] | – |
| COc1ccc(CN2CC[C@H]3C=CCc4cccc(c43)C2)cc1 | inconclusive [inhibitor, single point] | – |
| CC1CN(Cc2ccc(Cl)cc2Cl)CC(C)O1 (stereo unspecified) | inconclusive [inhibitor, single point] | – |
| CCN(Cc1ccccc1)C(=O)CN1C(=O)NC(CC)(c2ccc(F)cc2)C1=O (stereo unspecified) | inconclusive [inhibitor, single point] | – |
| O=S(=O)(/C=C/c1ccccc1)NC1CCCCCCC1 | inconclusive [inhibitor, single point] | – |
| COc1ccccc1CNC(=O)c1ccc(Cl)c(S(=O)(=O)N2CCCC2)c1 | inconclusive [inhibitor, single point] | – |
| COc1ccccc1N1CCN(c2nc3ccccc3n3cnnc23)CC1 | active: 20.6 µM | – |
| CC(Oc1ccc(Cl)cc1)c1ccnn1S(C)(=O)=O (stereo unspecified) | – | inactive: -19.6% |

| SMILES | Potency | activity change, negative = growth inhibition |
| --- | --- | --- |
| CCOC(=O)/C(=C\c1cn(C)c2ccccc12)[N+](=O)[O-] | inconclusive [inhibitor, single point] | – |
| CC(=O)Nc1ccc(NC(=O)CSc2nnnn2C2CCCCC2)cc1 | inconclusive [inhibitor, single point] | – |
| CCOc1ccc(NS(=O)(=O)c2ccc3ncsc3c2)cc1 | inconclusive [inhibitor, single point] | – |
| CCOCCCNC(=O)c1cccc(NC(=O)C2=C(C)OCCS2)c1 | – | inactive: 3.43% |
| O=C1C(=O)c2ccccc2C(O)=C1CCCCl | active: 4.11 µM | – |
| Cc1ccc(-c2nc(-c3ccccn3)no2)cc1 | active: 8.2 µM | – |
| Cc1ccc2nc(N(CCCN(C)C)C(=O)c3ccco3)sc2c1 | inconclusive [inhibitor, single point] | – |
| Cc1cc(C)n2c(Nc3ccccc3)c(-c3ccc(C)o3)nc2n1 | inconclusive [inhibitor, single point] | – |
| C=CCN(c1ccccc1)S(=O)(=O)c1cccc(C(=O)Oc2ccc3c(C)cc(=O)oc3c2)c1 | inconclusive [inhibitor, single point] | – |
| Cc1ccc(-n2nc(CO)c(C(=O)NCc3ccccn3)n2)cc1 | – | inactive: -14% |
| CC(C)(C)C(=O)Nc1ccc(C(=O)CN2C(=O)NC3(CCOc4ccccc43)C2=O)cc1 (stereo unspecified) | inconclusive [inhibitor, single point] | – |
| COc1ccc(NC(=S)NNc2ccc(C(=O)O)cc2)cc1 | – | inactive: -11.8% |
| CCn1nc(C)cc1C(=O)NCC1Cc2cccc(-c3cccnc3)c2O1 (stereo unspecified) | inconclusive [inhibitor, single point] | – |
| COc1ccc(NC(=O)CN2C(=O)CSc3ccc(S(=O)(=O)N4CCC(C)CC4)cc32)cc1 | inconclusive [inhibitor, single point] | – |
| COc1cccc(Cn2cnc3c(NS(=O)(=O)c4ccc(Cl)cc4Cl)c(C)c(C)cc32)c1 | inconclusive [inhibitor, single point] | – |
| O=C(CCn1nc(-c2ccccc2)c2ccccc2c1=O)Nc1ccccc1 | inconclusive [inhibitor, partial curve] | – |
| O=C(NC(CO)Cc1ccccc1)c1ccccc1 (stereo unspecified) | – | inactive: -13.1% |
| O=C(NNc1ccccc1F)c1cccs1 | inconclusive [inhibitor, single point] | – |
| O=C(Nc1cccc(C(=O)NC2CC2)c1)c1ccc(Cl)c(S(=O)(=O)N2CCOCC2)c1 | inconclusive [inhibitor, single point] | – |
| COc1ccccc1NS(=O)(=O)c1ccc(O)cc1 | inconclusive [inhibitor, single point] | – |
| Cn1cccc1Cc1nnc(SCC(=O)NC2CCCCC2)n1CCc1ccccc1 | inconclusive [inhibitor, single point] | – |
| COc1ccc(C(NC(=O)C2CCN(CCOc3ccc(Cl)cc3Cl)CC2)c2ccccc2C)cn1 (stereo unspecified) | inconclusive [inhibitor, partial curve, poor fit] | – |
| CN1c2ccsc2C(O)=C(C(=O)Nc2ccccc2)S1(=O)=O | inconclusive [inhibitor, partial curve] | – |
